In PubChem BioAssay (NCI) one finds growth data, which are given here for 1 molecule.

One assay relates to OVCAR-8 ovarian. Briefly: NCI-60 one-dose screen, 48 h (100 = growth as untreated, 0 = no growth, -100 = all killed).
Another assay deals with OVCAR-5 ovarian. The description is as above. To be noted: 0.25 µM.

Some compounds were tested as several samples or in several runs, with calls that do not always agree.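 In brief: 96-well plates, 48 h treatment, single concentration, percent growth endpoint.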 Some entries of the source have several records that differ or are many. This list holds those alone. The calls were made as follows: active = growth percent below 10; inactive = the rest. There may be further records. The screen tested this drug many times, at its own concentration, as given; each value is one run. Signs of the kind (2×) count equal records among those shown.

With `COc1cccc2c1C(=O)c1c(O)c3c(c(O)c1C2=O)C[C@@](O)(C(=O)CO)C[C@@H]3OC1CC(N)C(O)C(C)O1` (stereo partly drawn), the growth result with OVCAR-8 ovarian (0.25 µM, runs of 2019) is “inactive: 30.7, 34.8 (2×), 32.9, 32.8, 33.9, 35.3 (2×), 39.7, 37.1 (2×), 39 (2×), 34.7 (2×), 37.7, 36.2, 36.5, 29.9, 36.6, 40.2 (2×), 43.6, 39.9, 42.9, 47, 42.8 (2×), 34.2, 46.9, 38.8, 40.8, 44.3, 43.3, 43.9, 37.5 (2×), 42.6, 40.3, 45.8, 33, 40.7, 44.9, 43.7, 44.4, 35.6, 36.7, 35.7%”; in the assay with OVCAR-8 ovarian (0.25 µM, runs of 2020), “inactive: 30.4, 35.7, 39.5, 42.5 (2×), 42.8, 40.1, 41.5, 41.1, 42.4, 38.4, 36.5, 36.7, 43.8, 39.7, 48.8, 40.3, 49.3, 38.6, 40.8, 44.3, 45.3%”; in the assay with OVCAR-8 ovarian (0.25 µM, runs of 2021), “inactive: 59.6, 58, 45.6, 41.6 (2×), 45, 43.3, 62.6, 61.3, 40.8 (3×), 38.6, 39.2, 50.6, 48.6, 35.6, 38.2, 41.1, 37.1, 38.1, 48.3, 40.7, 55.1, 37.8, 55.4, 54.1, 39.5, 42.3, 41.2, 38.5, 41, 44.4, 41.5, 42.8, 47.8, 47.3, 31.5, 33.4, 39.8, 29.9, 33.8, 37.4, 37.5, 66.6, 42.9, 44.1%”; in the assay on OVCAR-8 ovarian (0.25 µM, runs of 2022), “active: 6.34%, 9.57% and inactive: 35.4, 36, 13.1, 37.8, 24.8, 34.8, 41.7, 43.6, 32.5, 46.3, 52.6, 39.8, 42, 40.8, 36.5, 63, 77.9, 81.5, 60.1, 75.7, 46.7, 43.1, 48.3, 35.3, 36.1%”; in the assay on OVCAR-8 ovarian (25 µM, runs of 1991), “active: -27.4, -40.2, 2.96, -1.89, -19, -25.2, 6.28, -32.8, -21.3, -4.56, -32.2, -16.7, -18.4, -5.8, 3.17, -11.9, -17.7, -35.8%”; in the assay with OVCAR-8 ovarian (25 µM, runs of 1992), “active: -27.3, -7.61, -10.4, -4.79, -9.72, -14.2, -27.6, -14.3 (3×), -49.8, -31.9 (2×), -9.78, -11.2, -8.08, -19.4, -24.8, -22.2, 2.29, -20.8, -34 (2×), -25.8, -7.74, -20.9, -34.5, -15.1, -17.4, -5.07, 0.165, -13.8 (2×), 3.08, -13.2, -13.4, 2.11, 0.5, -10.6, -19.3, 0.594, -21.4, -25.1, -58.2, -18, -2.17, -7.97, -1.33, 3.24, -16.1, -21.1, -26.5, -10.8, -7.68 (2×), -12.1, -18.7, -20.4, -14.9, -7.21, -2.1, -8.27, -22.8 (2×), -30.8, 2.38, -35.9 (2×), -38.8, -33.2, -50.4, -33.3, -27, -46, 1.43, -5.39, -4.58, 0.917, -9.07, -23.8, -2.75, -17.6 (2×), -41.7, -35, -3.44, -33.7, -22.3, -4.15, -13, -13.9, -0.662, -23.5, -25.3, -17.8, 4.39, -27.8, -18.9, -44.5, -26.9, -40.7, -26.3, 2.7, -8.67, -23, 1.41, -40.4, -16.7, -4.57, -11.6, 2.04, -12.3, -32.4, -43.6, -45.3, -3.3, 1, -24.4% and inactive: 87.8%”. For the same molecule, the growth entry is “inactive: 14.8%, 12.1% and active: -28, -26, -31.4, -49.1, 2.57, -16.9, -8.45, -41.8 (2×), -17.3, -17.8, -27.9, -1.18, 4.42, 2.03, -14.7, -22.5, -30.1, -19.1, -61.9, 4.87, 1.25, 6.4, -22.2, -4.41, -0.238, -47.1, 2.99, -18, -28.6, -17.7, -20.1, 3.54, -9.88, -16, -44.6, 2.75, -15.4, 3.87, -50.6, -32.8, 0.172, -45.3, -13.8, 0.163, 3.38%” in the assay on OVCAR-8 ovarian (25 µM, runs of 1993); “inactive: 127%, 89%, 13.4% and active: -55.3 (2×), -46.4, -31.6, -36.1, -14.8, -42.8, -6.85, -6.71, -67.1, 1.26, 6.12, -46.2, -6.27, -7.66, -26.5, -27.7, -30.6, -27.6, -41.6, -26.1, 0.658, -41.9, -38.8, -8.49, -11.2, 1.54, 1.38, -48.3, 6.1%” in the assay with OVCAR-8 ovarian (25 µM, runs of 1994); “active: -15.8, -21.7, -21, -39.5, -37.4, -9.86, -65.1, -5.16, -12.5, 0.162, 6.67, 0.874, -27.1, -23.8 (2×), -12.7, -14.1, -41.9, -31.1, -37.3, -56.5, -52.5, -28.5, -19.8, -31.8, -4.75, 2.02, -19.4, 2.26, -12.4, -6.85, -36.9, 0.559, 4.4, -30.9, -4.42, -18.3, -10.8% and inactive: 40.2%, 10.2%” in the assay on OVCAR-8 ovarian (25 µM, runs of 1995); “active: -11.2, -16.6, -33.2, 5.39 (2×), -8.44, -0.0967, 5.96, 2.28, -22.7, -18.7, 3.43, -4.02, -5.25, -14.2, 4.49, -33.6 (2×), -73.8, 8.6, -28.9, -36.9, -31.6, 0.296, 3.58, -45.1, -29, -28.3, -20.6, -21.2, 2.05, 0.0372, -20.5, -23.3, -60.6, -52.3, -8.9, -54.3, 0.356, -19, -30, -3.89, -6.39, -13.2, -40, -0.815, -15, -10.6, -36.2, 3.51, -55.2, -17.2% and inactive: 98.6, 58.5, 29.6, 11.8, 10.2, 12.8%” with OVCAR-8 ovarian (25 µM, runs of 1996); “inactive: 10.4%, 103%, 17.4% and active: -19.2, 9.04, -24.3, 0.426, -35.1, -10.4, 3.47, -16.5, -24, -25.5, -12.3, -28.2, -31.5, -0.828, 1.86, -23.4, -33.6, -14.8, -18.7, -13.9, 7.34, -23.2, -51.5, -38.2, -0.698, -20.6, -51.7, 3.5, -45.6, -35.4, -32.7, -30.2, -33.2, -59.4, -50, -11.2, -56.1, -42.9, -49.2%” in the assay on OVCAR-8 ovarian (25 µM, runs of 1997); “active: -12.7, -52, -11.4, -32.3, 3.72, -37.8, -50.7, -81.5, -36.6, -31.1, 0.248, -3.12, -27.7, -35, -51.6, -57, -65.9, -20.7, 1.07, 8.73, -55.2, -2.14, 2.52% and inactive: 18.4%” in the assay on OVCAR-8 ovarian (25 µM, runs of 1998). Besides, the growth entry with OVCAR-8 ovarian (25 µM, runs of 1999) was “active: -41.4, -14.1, -77.9, -12.7, -100 (3×), 1.26, -79.5, 5.18, -29.5, 4.23, -88.8, -57.6, 0.415, -21.2% and inactive: 13.5%”; in the assay with OVCAR-8 ovarian (25 µM, runs of 2000), “active: -100% (2×), 0.98%, -0.658%”; in the assay with OVCAR-5 ovarian (runs of 2006) it was “inactive: 45.8%, 65.7%”; with OVCAR-5 ovarian (runs of 2007) it was “inactive: 49.9, 63, 77, 71.3, 95.6, 102 (2×), 94.1 (2×), 106 (2×), 110 (3×), 96.6 (2×), 99.4, 92.3, 105, 128, 101, 86.3, 99.2, 97.8, 126, 80.4, 112, 107, 11.4, 98.6, 90.3, 88.9, 85.2, 125, 120, 95.1, 75.6, 88.5, 90.5%”; in the assay with OVCAR-5 ovarian (runs of 2008), “inactive: 106, 97.9, 90.7, 100 (2×), 101 (3×), 102, 107 (3×), 105 (2×), 110, 115, 125, 85.6, 82.2, 86.1 (3×), 84.3, 80.5, 91.7, 88.9, 120, 96.8, 71, 79.9, 83.7, 96.6, 90, 30, 72.8, 67.9, 62.8, 78.5, 88.5, 92.1, 75.3, 96.3, 98, 126, 119, 96.7, 111 (2×), 96.2, 85.9, 95.2, 79.2, 89.1, 94.3%”; in the assay on OVCAR-5 ovarian (runs of 2009), “inactive: 75.9, 76.5, 79.9, 75.1, 78.2 (2×), 94.7, 99.3, 107, 89.2, 86, 105 (3×), 98.5, 89.1, 91.8 (2×), 85.6, 88.7, 86.3, 93.7 (2×), 68.9, 92.2, 82, 74.7, 69.8, 84.5 (2×), 74, 83, 82.8, 97.6, 74.9, 72.2, 61.2, 78, 77.6, 78.4, 91, 86.8, 101 (3×), 84.3, 77.4, 79.3, 91.5, 97.9, 102 (2×), 89.9, 125, 115, 100, 114 (2×), 94, 109, 96.3%”. The growth entry was “inactive: 114 (3×), 94.7, 88.1, 92.1, 96.2 (2×), 115 (2×), 106 (3×), 107 (2×), 100 (2×), 94.3, 95.1, 119, 102 (2×), 88.9, 83.1, 91.3, 68, 89.7, 96.5, 84, 89.3, 80.6, 116, 93.9, 85.1, 73.6, 91, 109, 96.8, 99.7, 105 (3×), 88.5, 85.8, 92.4, 110%” in the assay with OVCAR-5 ovarian (runs of 2010); “inactive: 109 (3×), 111, 107 (3×), 114, 119, 82.8, 75.7, 95, 90.2, 90.3 (2×), 93.1, 94.5, 101 (5×), 97.7, 98.6 (2×), 92.4, 94.1, 99.7, 91.2, 77.7, 86.8, 99.4 (2×), 92.1, 82.2, 90.8, 92.3 (2×), 98.4, 97.9 (2×), 100, 113, 90.1, 71.2, 94.9, 83.2, 97.3, 88.5, 90.7, 86.6%” in the assay on OVCAR-5 ovarian (runs of 2011); “inactive: 98, 85.8, 94.2 (2×), 95, 95.4, 86.6, 98.9, 99.7, 102 (5×), 106, 93.5, 97.2, 77.7, 96.2, 107 (3×), 97.1, 82.2, 93.9, 88.9, 83.8, 96.8, 94.7, 98.3, 98.7, 91.1, 98.6, 110 (2×), 112, 98.4 (2×), 87.8, 100, 116, 105, 111, 96.1, 99.1, 92.9, 89.9 (2×), 91.6, 89.8, 93.7, 92.6, 87.5, 69.1, 74.6, 89%” in the assay on OVCAR-5 ovarian (runs of 2012); “inactive: 74.3 (2×), 84.3, 82.3, 76.3, 76.5, 88.6, 81.4, 82.4, 86.6, 87.5, 79.2, 88.1, 80, 85.1, 83.8, 85.6, 97.6, 96.6, 94.9, 106 (2×), 102 (2×), 112, 107, 110, 98.7, 98.9, 111 (5×), 113 (3×), 109, 120, 118, 94.6, 98.1, 98.6, 91.6, 92.4, 101 (4×), 94.4, 94.7, 117 (2×), 89.5, 87.7, 83.5, 80.4, 74.7, 71.8, 73.8, 69.8, 69.4, 55.8, 58.3, 63, 72.3, 69.7, 73.6, 67%” in the assay on OVCAR-5 ovarian (runs of 2013); “inactive: 74, 78.4, 71, 63.4, 60.3, 79.3, 81.2, 50.7, 61.7, 60.2, 74.4 (2×), 56.9, 77.8, 72.4, 91.6, 81.5, 83.1 (3×), 89.5, 81.7, 93.1, 82.2, 74.8, 71.7 (2×), 70.6, 74.2, 71.1, 65.3, 69.6, 67.2 (2×), 64.4, 71.2, 64.7 (3×), 65.4, 72.2, 64.5, 61.9, 62.2, 52.5, 63.9, 59.4, 70.3, 64.9, 50.2, 60.6, 66.5, 71.4, 64.8, 60.8, 65.8, 63.1 (2×), 58.2, 58.8, 66, 69.8, 70.7, 62.6, 53.8, 68.6, 73.2, 76.1, 73.8, 71.6, 67.5, 92.5, 86.1, 80.7, 87.8, 68.2, 68, 95.6, 67.9%” with OVCAR-5 ovarian (runs of 2014).
